The IC50 comes from the fitted curve, where viability falls to half of the control; fits outside the tested doses are given as limits. AUC is the area under the same curve over the 256-fold range up to the top dose, as a fraction; the more sensitive the line, the further below 1. For part of these data: An inferred top dose comes from the curve model; the source does not state it. For part of these data: Drugs with an entry number were screened twice under separate entries, and the two screens often disagree.
Tests used:
Experiment in all cases: Viability of human cancer cell lines after 72 h of drug (GDSC screen)
[1] = compound: Nc1ccn([C@@H]2O[C@H](CO)[C@@H](O)[C@@H]2O)c(=O)n1 [Cytarabine]; conditions: top dose 2 µM
Method: (§1)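 Human cancer cell lines in 384-well plates, medium with 10% serum, drug for 72 h over a 256-fold dose range (nine 2-fold or five 4-fold steps up to the top dose). Adherent lines were fixed and stained with the nucleic acid dye Syto60, suspension lines read with resazurin; signal relative to control wells, capped at 0 and 100%. One two-parameter sigmoid per drug and line, fitted in a mixed model over all curves with the slope shared within a line.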

[2] = compound: Cc1ccc(F)c(NC(=O)Nc2ccc(-c3cccc4[nH]nc(N)c34)cc2)c1 [ABT-869]; conditions: top dose 1.024 µM; top dose inferred
Method: as §1

[3] = compound: C=CC(=O)Nc1cc(-n2c(=O)ccc3cnc4ccc(-c5cn[nH]c5)cc4c32)ccc1C [QL-X-138]; conditions: top dose 10.24 µM; top dose inferred
Method: as §1

[4] = compound: CCn1c(-c2nonc2N)nc2cnc(Oc3cccc(NC(=O)c4ccc(OCCN5CCOCC5)cc4)c3)cc21 [GSK269962A]; conditions: top dose inferred
Method: as §1

[5] = compound: Cc1cnc(-c2cnc(NCCNc3ccc(C#N)cn3)nc2-c2ccc(Cl)cc2Cl)[nH]1 [CHIR-99021]
Method: as §1

[6] = compound: COc1cc2ncnc(-n3nc(-c4ccccn4)nc3N)c2cc1OC [CP466722]; conditions: top dose 16 µM; top dose inferred
Method: as §1

[7] = compound: COc1cc(O)c2c(c1)/C=C/C[C@H](O)[C@H](O)C(=O)/C=C\C[C@H](C)OC2=O [(5Z)-7-Oxozeaenol]; conditions: top dose 10 µM; top dose inferred
Method: as §1

[8] = compound: C/C=C(/C)C(=O)O[C@H]1C(C)=C2[C@H]([C@@H]1OC(=O)CCCCCCC)[C@@](C)(OC(C)=O)C[C@H](OC(=O)CCC)[C@@]1(O)[C@H]2OC(=O)[C@@]1(C)O [Thapsigargin]; conditions: top dose 0.512 µM; top dose inferred
Method: as §1

[9] = compound: O=c1cc(-c2cccc3c2Sc2ccccc2S3)oc(N2CCOCC2)c1 [KU-55933]; conditions: top dose 10 µM
Method: as §1

[10] = compound: COc1nc(C)cnc1NS(=O)(=O)c1cccnc1-c1ccc(-c2nnco2)cc1 [Zibotentan]; conditions: top dose 20 µM; top dose inferred
Method: as §1

[11] = compound: Cc1ccc(-c2c(C(=O)CCl)n(CCCO)c3ncnc(N)c23)cc1 [CMK]; conditions: top dose 4 µM; top dose inferred
Method: as §1

[12] = compound: C[C@]1(c2nc3c(C(N)=O)cccc3[nH]2)CCCN1 [ABT-888]; conditions: top dose 5 µM; top dose inferred
Method: as §1

[13] = compound: COc1cc(N2CCC(O)CC2)ccc1Nc1cc(Nc2ccccc2S(=O)(=O)C(C)C)c2cc[nH]c2n1 [MPS-1-IN-1]; conditions: top dose 20 µM; top dose inferred
Method: as §1

[14] = top dose 2.5 µM, screen: GDSC drug entry 127
[15] = top dose 5 µM, screen: GDSC drug entry 1192
[16] = top dose 2.56 µM, screen: GDSC drug entry 154
[17] = top dose 10 µM, screen: GDSC drug entry 1241, top dose inferred

Cell Line | AUC [1] | IC50 [1] [µM] | AUC [2] | IC50 [2] [µM] | AUC [3] | IC50 [3] [µM] | AUC [4, 14] | IC50 [4, 14] [µM] | AUC [4, 15] | IC50 [4, 15] [µM] | AUC [5, 16] | IC50 [5, 16] [µM] | AUC [5, 17] | IC50 [5, 17] [µM] | AUC [6] | IC50 [6] [µM] | AUC [7] | IC50 [7] [µM] | AUC [8] | IC50 [8] [µM] | AUC [9] | IC50 [9] [µM] | AUC [10] | IC50 [10] [µM] | AUC [11] | IC50 [11] [µM] | AUC [12] | IC50 [12] [µM] | AUC [13] | IC50 [13] [µM]
RL (B-cell lymphoma, suspension) | 0.91 | > 2 | 0.99 | > 1.02 | 0.524 | 0.739 | 0.923 | > 2.5 | 0.887 | 4.78 | 0.99 | > 2.56 | 0.944 | > 10 | 0.779 | 5.96 | 0.921 | > 10 | 0.94 | > 0.512 | 0.962 | > 10 | 0.989 | > 20 | 0.984 | > 4 | 0.99 | > 5 | 0.802 | 8.87
ROS-50 (B-cell leukaemia, suspension) | 0.963 | > 2 | 0.983 | > 1.02 | 0.829 | 8.97 | 0.984 | > 2.5 | 0.975 | > 5 | 0.984 | > 2.56 | 0.982 | > 10 | 0.822 | 13 | 0.893 | > 10 | 0.518 | 0.0363 | 0.975 | > 10 | 0.979 | > 20 | 0.879 | > 4 | 0.972 | > 5 | 0.822 | 16.1
RPMI-6666 (Hodgkin lymphoma, suspension) | 0.924 | > 2 | 0.975 | > 1.02 | 0.367 | 0.255 | 0.886 | > 2.5 | 0.947 | > 5 | 0.928 | > 2.56 | 0.979 | > 10 | 0.615 | 2.21 | 0.686 | 2.32 | 0.559 | 0.0478 | 0.956 | > 10 | 0.977 | > 20 | 0.776 | 1.94 | 0.976 | > 5 | 0.801 | 12.2
RPMI-8866 (chronic myeloid leukaemia, suspension) | 0.817 | 1.02 | 0.988 | > 1.02 | 0.654 | 1.65 | 0.981 | > 2.5 | 0.868 | 4.02 | 0.987 | > 2.56 | 0.97 | > 10 | 0.842 | 10.1 | 0.581 | 1.02 | 0.836 | 0.306 | 0.816 | 5.04 | 0.981 | > 20 | 0.92 | > 4 | 0.881 | 4.59 | 0.893 | > 20
RXF393 (kidney, adherent) | 0.758 | 0.959 | 0.967 | > 1.02 | 0.619 | 1.55 | 0.663 | 0.534 | 0.726 | 1.8 | 0.822 | 2.33 | 0.859 | > 10 | 0.821 | 14.4 | 0.664 | 2.14 | 0.718 | 0.171 | 0.944 | > 10 | 0.975 | > 20 | 0.858 | > 4 | 0.958 | > 5 | 0.832 | > 20
Raji (Burkitt lymphoma, suspension) | 0.915 | > 2 | 0.986 | > 1.02 | 0.783 | 4.01 | 0.988 | > 2.5 | 0.891 | > 5 | 0.99 | > 2.56 | 0.989 | > 10 | 0.922 | > 16 | 0.751 | 3.1 | 0.552 | 0.044 | 0.96 | > 10 | 0.987 | > 20 | 0.901 | > 4 | 0.989 | > 5 | 0.927 | > 20
Ramos-2G6-4C10 (Burkitt lymphoma, suspension) | 0.861 | 1.31 | 0.981 | > 1.02 | 0.635 | 1.42 | 0.796 | 0.982 | 0.311 | 0.101 | 0.975 | > 2.56 | 0.967 | > 10 | 0.672 | 2.79 | 0.781 | 3.53 | 0.152 | 0.00341 | 0.852 | 6.04 | 0.989 | > 20 | 0.896 | 3.64 | 0.953 | > 5 | 0.777 | 6.84
SBC-1 (small cell lung carcinoma, suspension) | 0.988 | > 2 | 0.983 | > 1.02 | 0.627 | 1.41 | 0.978 | > 2.5 | 0.652 | 0.81 | 0.971 | > 2.56 | 0.988 | > 10 | 0.884 | > 16 | 0.714 | 2.45 | 0.575 | 0.0508 | 0.988 | > 10 | 0.979 | > 20 | 0.987 | > 4 | 0.989 | > 5 | 0.981 | > 20
SCH (stomach, adherent) | 0.879 | > 2 | 0.985 | > 1.02 | 0.936 | > 10.2 | 0.977 | > 2.5 | 0.967 | > 5 | 0.974 | > 2.56 | 0.987 | > 10 | 0.975 | > 16 | 0.795 | 5.05 | 0.988 | > 0.512 | 0.977 | > 10 | 0.988 | > 20 | 0.969 | > 4 | 0.986 | > 5 | 0.988 | > 20
SF539 (glioma, adherent) | 0.753 | 0.607 | 0.96 | > 1.02 | 0.594 | 1.13 | 0.802 | 1.09 | 0.937 | > 5 | 0.968 | > 2.56 | 0.947 | > 10 | 0.896 | > 16 | 0.705 | 2.21 | 0.328 | 0.0112 | 0.974 | > 10 | 0.981 | > 20 | 0.792 | 1.61 | 0.989 | > 5 | 0.948 | > 20
SH-4 (melanoma, adherent) | 0.91 | > 2 | 0.96 | > 1.02 | 0.825 | > 10.2 | 0.892 | > 2.5 | 0.668 | 1.19 | 0.975 | > 2.56 | 0.97 | > 10 | 0.825 | > 16 | 0.119 | < 0.0391 | 0.283 | 0.00546 | 0.973 | > 10 | 0.971 | > 20 | 0.878 | > 4 | 0.971 | > 5 | 0.945 | > 20
SHP-77 (small cell lung carcinoma, semi-adherent) | 0.982 | > 2 | 0.991 | > 1.02 | 0.733 | 2.7 | 0.985 | > 2.5 | 0.959 | > 5 | 0.991 | > 2.56 | 0.871 | 7.75 | 0.931 | > 16 | 0.816 | 4.79 | 0.604 | 0.0596 | 0.99 | > 10 | 0.991 | > 20 | 0.948 | > 4 | 0.991 | > 5 | 0.905 | > 20
SK-ES-1 (Ewing sarcoma, semi-adherent) | 0.655 | 0.347 | 0.984 | > 1.02 | 0.633 | 1.53 | 0.985 | > 2.5 | 0.959 | > 5 | 0.984 | > 2.56 | 0.976 | > 10 | 0.657 | 2.81 | 0.812 | 5.78 | 0.175 | 0.00305 | 0.931 | > 10 | 0.98 | > 20 | 0.876 | > 4 | 0.978 | > 5 | 0.777 | 8.57
SK-MEL-1 (melanoma, suspension) | 0.982 | > 2 | 0.993 | > 1.02 | 0.933 | > 10.2 | 0.987 | > 2.5 | 0.969 | > 5 | 0.987 | > 2.56 | 0.982 | > 10 | 0.9 | 15.6 | 0.546 | 0.819 | 0.859 | 0.336 | 0.99 | > 10 | 0.992 | > 20 | 0.989 | > 4 | 0.993 | > 5 | 0.984 | > 20
SK-MM-2 (myeloma, suspension) | 0.985 | > 2 | 0.98 | > 1.02 | 0.681 | 2.1 | 0.97 | > 2.5 | 0.951 | > 5 | 0.949 | > 2.56 | 0.986 | > 10 | 0.698 | 3.7 | 0.826 | 6.43 | 0.567 | 0.0491 | 0.987 | > 10 | 0.983 | > 20 | 0.979 | > 4 | 0.987 | > 5 | 0.707 | 4.94
SK-N-FI (neuroblastoma, adherent) | 0.903 | > 2 | 0.989 | > 1.02 | 0.893 | > 10.2 | 0.978 | > 2.5 | 0.931 | > 5 | 0.987 | > 2.56 | 0.988 | > 10 | 0.829 | 9.85 | 0.428 | 0.399 | 0.687 | 0.106 | 0.968 | > 10 | 0.989 | > 20 | 0.892 | > 4 | 0.987 | > 5 | 0.924 | > 20
SK-PN-DW (Ewing sarcoma, adherent) | 0.754 | 0.697 | 0.982 | > 1.02 | 0.613 | 1.32 | 0.955 | > 2.5 | 0.897 | > 5 | 0.986 | > 2.56 | 0.984 | > 10 | 0.748 | 5.31 | 0.813 | 5.67 | 0.286 | 0.00771 | 0.926 | > 10 | 0.981 | > 20 | 0.869 | 3.93 | 0.933 | > 5 | 0.689 | 4.33

Source: the supplement of paper PMC4967469
